Measurements reported in US7572600B2, “Enzymatic activities in chemokine-mediated inflammation” (Chemocentryx, Inc., priority 2004, dated 2009).

Test system: THP-1 cells
Assay: THP-1 chemotaxis assay
Format: cell-based, human
Protocol: Chemotaxis assay. L1.2-CCR1 transfectants, THP-1 cells, human monocytes and human neutrophils were collected by centrifugation and resuspended in HBSS containing 0.1% BSA. Chemotaxis assays were performed in 96-well ChemoTx® microplates (Neuroprobe, Rockville, Md.) as follows. Chemokines were added to the lower wells (final volume 29 μL), and 20 μL of cell suspension (5×10^6 cells/mL) was added to the polycarbonate filter (3 μm pore size for neutrophils, 5 μm for other 3 cell types). After incubation at 37° C. in the presence of 5% CO2 for 1 hr (neutrophils), 90 min (monocytes) or 2 h (THP-1 and L1.2-CCR1), cells were removed from the upper surface of the filter by scraping. Cells that migrated into the lower chamber were quantified by using the CyQuant cell proliferation assay kit (Molecular Probes, Eugene, Oreg.) and analyzed with a Tecan (Durham, N.C.) fluorimeter (excitation at 480 nm, emission at 530 nm). Data were analyzed and plotted in arbitrary units of fluorescence using Prism (GraphPad Software, San Diego, Calif.).

Molecule	fold less potent than CCL15Δ24/LKN-1
CCL5/RANTES: traditional CCR1 ligand chemokine	approximately 3 fold
CCL3/MIP-1α: traditional CCR1 ligand chemokine; unlabelled homologous competitor in binding (protein) ADTPTACCFSYTSRQIPQNFIADYFETSSQCSKPGVIFLTKRSRQVCADPSEEWVQKYVSDLELSA	approximately 3 fold
